# Inconclusive results, whose numbers are uncertain, are shown with a selection of clear calls. For part of these data: No potency is given beside an inconclusive call; the fits are too rough. Calls of active or inactive are those of the source. Unless noted, calls come from the whole dose curve; as a rule, active = well fitted curve in the direction sought with a large enough effect; inconclusive = small, poorly fitted or top-dose-only effect, or another doubt; inactive = no such curve, though single readings can be large; an effect the other way counts as inactive or inconclusive.
# Key:
# [1] = AP1 Signaling Pathway (AID 357; active = well fitted curve in either direction with a large enough effect, not every such curve was filed as active; inconclusive = small, poorly fitted or top-dose-only effect, or another doubt;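 note: ME-180 reporter cells stimulated with EGF at its EC50 level; top concentration of the series differs between compounds; % is set by controls: 0 for no effect and ±100 for the full control effect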); settings: ME-180 AP-1-bla reporter, EGF-induced, beta-lactamase ratio, 5 h; at 7.69 µM (top of the series) unless noted
# Outline: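 AP-1-bla ME-180 cells, Opti-MEM + 0.5% dialyzed FBS, plated overnight 37 °C. Cpd titration + EC50 EGF, 5 h 37 °C. CCF4 2.5 h RT; ex 405, em 460/530 ratio → %activity, AC50.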
# [2] = Primary qHTS for small molecule stabilizers of the endoplasmic reticulum resident proteome: Secreted ER Calcium Modulated Protein (SERCaMP) assay (AID 1508630); settings: SH-SY5Y GLuc-SERCaMP (Gaussia luciferase released on ER calcium loss) secretion, thapsigargin, luminescence; activity change, negative = inhibition: at 38.4 µM (top of the series) unless noted; note: potency is the fitted concentration of half-maximal effect; for activity change, negative = inhibition: % is set by controls: 0 for no effect and ±100 for the full control effect
# Outline: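 The SH-SY5Y reporter protocol was run at 3 concentrations up to 38.3 uM (primary) or 11 concentrations (follow-up): 16 h compound, 100 nM thapsigargin for 4 h, then extracellular luciferase luminescence.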
# [3] = qHTS Assay for Identification of Small Molecule Agonists for Hypoxia Response Element Signaling Pathway (AID 914; active = well fitted activation curve with a large enough effect in the signal ratio, with a control signal flat, not every such curve was filed as active; inconclusive = small, poorly fitted or top-dose-only effect, or effect the other way, or a change in a side signal; the % refers to the signal ratio; note: potency is the fitted concentration of half-maximal effect; for activation: top concentration of the series differs between compounds; % of control where 0% means no effect); settings: ME-180 HRE-bla reporter, beta-lactamase ratio, CoCl2, 17 h; activation: hits give high values
# Outline: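 A beta-lactamase reporter under hypoxia response element control in ME-180 cells served as the system. Compound titrations plus EC50 CoCl2 ran 17 h at 37 degrees Celsius; AC50 values were fitted from %Activity.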
# [4] = target: Dual specificity protein kinase CLK4 (Homo sapiens) (UniProt Q9HAZ1); experiment: qHTS Assay for Inhibitors of CDC-like Kinase 4 (ADP-FP Assay) (AID 1795); note: potency is the fitted concentration of half-maximal effect;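 note: recombinant human CLK4 phosphorylating RS repeat peptide at 1 µM ATP; nearly all actives have a fitted effect of over 60% in size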; for activity change, negative = inhibition: % is set by controls: 0 for no effect and ±100 for the full control effect
# Chain of UniProt Q9HAZ1 (Q9HAZ1 whole entry, looked up): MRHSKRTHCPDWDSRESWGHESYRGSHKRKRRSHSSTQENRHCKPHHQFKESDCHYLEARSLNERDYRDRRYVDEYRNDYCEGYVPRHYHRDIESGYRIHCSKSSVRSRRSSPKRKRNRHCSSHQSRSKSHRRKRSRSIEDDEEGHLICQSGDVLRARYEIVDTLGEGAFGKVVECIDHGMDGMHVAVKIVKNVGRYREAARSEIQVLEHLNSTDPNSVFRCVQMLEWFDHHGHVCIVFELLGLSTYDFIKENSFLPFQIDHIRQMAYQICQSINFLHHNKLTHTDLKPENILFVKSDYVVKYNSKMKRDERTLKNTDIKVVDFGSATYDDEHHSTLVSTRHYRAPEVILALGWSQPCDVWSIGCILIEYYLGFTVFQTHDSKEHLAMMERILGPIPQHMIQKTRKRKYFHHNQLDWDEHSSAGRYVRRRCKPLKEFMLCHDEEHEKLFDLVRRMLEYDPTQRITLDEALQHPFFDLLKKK
# Outline: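 Inhibition of ADP formation by 6.25 nM Clk4 is measured using 1 uM ATP and 100 uM RS repeat peptide over one hour. Produced ADP displaces a fluorescent tracer from antibody, lowering polarization.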
# [5] = target: 3',5'-cyclic-AMP phosphodiesterase 4B (Homo sapiens) (UniProt Q07343); experiment: qHTS Assay for Inhibitors of PDE-IV (AID 607; active = well fitted activation curve with a large enough effect in the main read-out, with a control signal flat, not every such curve was filed as active; inconclusive = small, poorly fitted or top-dose-only effect, or effect the other way, or a change in a side signal; note: potency is the fitted concentration of half-maximal effect); settings: HEK293 ACTOne CNG channel cells, membrane potential fluorescence; activation (PDE inhibition): at 22.9 µM (top of the series)
# Chain of UniProt Q07343 (Q07343 whole entry, looked up): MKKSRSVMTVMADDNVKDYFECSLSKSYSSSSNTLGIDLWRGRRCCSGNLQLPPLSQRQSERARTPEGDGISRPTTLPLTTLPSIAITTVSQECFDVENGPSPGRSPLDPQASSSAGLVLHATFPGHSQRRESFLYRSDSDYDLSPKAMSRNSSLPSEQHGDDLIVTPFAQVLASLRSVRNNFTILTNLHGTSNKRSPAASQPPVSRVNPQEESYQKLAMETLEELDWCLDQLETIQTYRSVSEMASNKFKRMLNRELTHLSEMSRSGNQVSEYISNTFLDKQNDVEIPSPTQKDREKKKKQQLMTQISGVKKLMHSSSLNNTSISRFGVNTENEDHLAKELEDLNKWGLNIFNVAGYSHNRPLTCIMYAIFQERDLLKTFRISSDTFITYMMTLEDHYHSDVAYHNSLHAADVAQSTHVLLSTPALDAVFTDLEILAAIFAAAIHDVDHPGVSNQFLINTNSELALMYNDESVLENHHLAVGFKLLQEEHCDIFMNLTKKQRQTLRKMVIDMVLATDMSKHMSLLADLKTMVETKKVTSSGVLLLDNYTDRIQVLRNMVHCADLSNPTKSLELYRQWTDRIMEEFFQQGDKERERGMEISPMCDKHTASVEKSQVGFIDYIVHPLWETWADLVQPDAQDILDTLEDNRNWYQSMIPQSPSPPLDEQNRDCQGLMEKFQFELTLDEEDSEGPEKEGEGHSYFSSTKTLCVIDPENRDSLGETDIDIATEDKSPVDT
# Outline: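 ACTOne HEK293 cells carry a modified cAMP-gated CNG channel and express endogenous PDE4; plated 1000 cells/well, compounds up to 22.9 uM final. Membrane-potential dye fluorescence (ex 535/em 590) was read; parental cells received 10 uM forskolin + 100 uM RO 20-1724.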
# [6] = target: Cytochrome P450 2C9 (Homo sapiens) (UniProt P11712); experiment: qHTS Assay for Inhibitors and Substrates of Cytochrome P450 2C9 (AID 883); note: potency is the fitted concentration of half-maximal effect; nearly all actives have a fitted effect of over 60% in size
# Chain of UniProt P11712 (P11712 whole entry, looked up): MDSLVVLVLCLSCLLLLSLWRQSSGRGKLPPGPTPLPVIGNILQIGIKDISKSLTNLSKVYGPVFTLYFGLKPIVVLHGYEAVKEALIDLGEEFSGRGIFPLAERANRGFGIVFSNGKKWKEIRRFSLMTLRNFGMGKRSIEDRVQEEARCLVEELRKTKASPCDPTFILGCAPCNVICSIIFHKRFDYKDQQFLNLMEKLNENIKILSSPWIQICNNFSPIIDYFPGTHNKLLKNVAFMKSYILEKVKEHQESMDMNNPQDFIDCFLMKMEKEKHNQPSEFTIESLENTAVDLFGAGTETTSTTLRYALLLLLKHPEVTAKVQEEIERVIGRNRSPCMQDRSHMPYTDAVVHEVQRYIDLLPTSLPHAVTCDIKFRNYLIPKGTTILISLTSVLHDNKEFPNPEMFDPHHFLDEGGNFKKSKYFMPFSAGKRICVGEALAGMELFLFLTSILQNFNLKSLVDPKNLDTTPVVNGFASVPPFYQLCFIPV
# Outline: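 Inhibition of CYP2C9 is scored as loss of luminescence, with 57uM sulphaphenazole defining 100% inhibition. Substrate Luciferin-H is used at 100uM, equal to its KM; enzyme at 10nM in 25mM KPO4, 60 min at 37C with NADPH regeneration.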
# [7] = target: Cytochrome P450 2C19 (Homo sapiens) (UniProt P33261); experiment: qHTS Assay for Inhibitors and Substrates of Cytochrome P450 2C19 (AID 899); note: potency is the fitted concentration of half-maximal effect; nearly all actives have a fitted effect of over 60% in size
# Chain of UniProt P33261 (P33261 whole entry, looked up): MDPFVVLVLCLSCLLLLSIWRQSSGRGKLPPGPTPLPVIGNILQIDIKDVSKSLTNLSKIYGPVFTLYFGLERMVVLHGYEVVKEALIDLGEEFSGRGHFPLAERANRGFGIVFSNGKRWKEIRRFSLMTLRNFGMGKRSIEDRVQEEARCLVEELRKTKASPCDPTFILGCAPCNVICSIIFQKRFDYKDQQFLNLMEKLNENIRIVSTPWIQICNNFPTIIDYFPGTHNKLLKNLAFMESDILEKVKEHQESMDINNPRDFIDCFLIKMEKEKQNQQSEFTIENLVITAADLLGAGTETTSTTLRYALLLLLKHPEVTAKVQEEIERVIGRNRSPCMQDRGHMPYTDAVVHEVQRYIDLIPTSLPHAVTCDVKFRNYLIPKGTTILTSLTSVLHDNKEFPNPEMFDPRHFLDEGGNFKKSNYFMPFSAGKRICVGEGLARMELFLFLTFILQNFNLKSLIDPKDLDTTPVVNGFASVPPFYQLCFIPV
# Outline: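 5nM enzyme + 10uM Luciferin-H EGE (=KM), 50mM KPO4; cpd pin-transferred, 10 min 37C; NADPH regen, 60 min 37C; stopped w/ luciferin detection reagent, 20 min; luminescence. Normalized to 57uM ketoconazole (AC100).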
# [8] = Stat Signaling Pathway (AID 446; active = well fitted curve in either direction with a large enough effect, not every such curve was filed as active; inconclusive = small, poorly fitted or top-dose-only effect, or another doubt;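 note: ME-180 cervical cancer cells given 40 pM IL-6 alongside compound; SIE-controlled beta-lactamase reporter measured as 460/530 nm FRET emission ratio; top concentration of the series differs between compounds; % is set by controls: 0 for no effect and ±100 for the full control effect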); settings: ME-180 (cervical carcinoma) SIE beta-lactamase reporter, IL-6 stimulated, 5 h; at 7.69 µM (top of the series) unless noted
# Outline: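 Compound effects on IL-6-induced STAT reporter activity were measured in ME-180 cells. After overnight culture, cells were co-treated with 40 pM IL-6 for 5 hrs before beta-lactamase substrate loading at room temperature.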
# [9] = target: DNA repair nuclease/redox regulator APEX1 (Homo sapiens) (UniProt P27695); experiment: Confirmation qHTS Assay for Inhibitors of the Human Apurinic/apyrimidinic Endonuclease 1 (APE1) (AID 2572); note: potency is the fitted concentration of half-maximal effect; nearly all actives have a fitted effect of over 30% in size
# Chain of UniProt P27695 (P27695 whole entry, looked up): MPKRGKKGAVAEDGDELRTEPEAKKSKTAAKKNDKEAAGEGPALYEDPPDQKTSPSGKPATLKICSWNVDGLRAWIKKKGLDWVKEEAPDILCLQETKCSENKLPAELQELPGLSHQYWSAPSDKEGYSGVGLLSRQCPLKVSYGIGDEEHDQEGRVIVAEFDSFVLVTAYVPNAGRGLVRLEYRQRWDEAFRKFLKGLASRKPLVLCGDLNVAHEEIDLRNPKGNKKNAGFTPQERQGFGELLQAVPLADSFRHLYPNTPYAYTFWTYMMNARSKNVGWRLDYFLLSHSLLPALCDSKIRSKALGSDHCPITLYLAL
# Outline: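 Double-stranded THF abasic-site substrate (50 nM final), 5'-TAMRA/3'-BHQ-2; APE1 incision raises fluorescence. Enzyme preincubated with compound 15 min at room temperature before substrate; kinetic read Ex 525/Em 598 nm, signal difference between third and first reads.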
# [10] = target: Cytochrome P450 1A2 (Homo sapiens) (UniProt P05177); experiment: p450-cyp1a2 (AID 410; calls by dose curve; note: potency is the fitted concentration of half-maximal effect)
# Chain of UniProt P05177 (P05177 whole entry, looked up): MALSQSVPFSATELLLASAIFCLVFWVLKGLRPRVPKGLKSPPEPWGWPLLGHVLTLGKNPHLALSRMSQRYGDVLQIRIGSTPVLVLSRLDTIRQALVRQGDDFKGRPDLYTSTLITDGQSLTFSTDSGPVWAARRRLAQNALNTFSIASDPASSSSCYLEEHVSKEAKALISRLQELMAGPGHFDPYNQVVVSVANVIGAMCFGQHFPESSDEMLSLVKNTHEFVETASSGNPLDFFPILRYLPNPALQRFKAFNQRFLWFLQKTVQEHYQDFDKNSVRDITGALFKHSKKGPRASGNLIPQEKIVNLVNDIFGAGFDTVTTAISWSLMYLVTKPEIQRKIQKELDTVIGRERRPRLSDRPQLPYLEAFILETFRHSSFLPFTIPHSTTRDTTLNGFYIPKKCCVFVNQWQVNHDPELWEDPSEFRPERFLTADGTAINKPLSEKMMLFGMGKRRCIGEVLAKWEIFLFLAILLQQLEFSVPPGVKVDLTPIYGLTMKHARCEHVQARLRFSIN
# Outline: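 O-Demethylation of luciferin 6' methyl ether by human CYP1A2 is monitored as luciferase luminescence. Substrate sits at Km (100uM); enzyme is 20nM. Values are scaled to 57 uM furafylline as maximal inhibition.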
# Tags give direction and shape of the fitted curve or compound fluorescence and quenching.
compound,measurement,setting,value
CC(=O)N1CCC2(CCCN(Cc3cc(C(F)(F)F)cc(C(F)(F)F)c3)C2)CC1,"activity change, negative = inhibition",[1],inactive: 7.77%
same,Potency,[2],inactive
COc1ccccc1CCn1c(=O)cnc2cncnc21,Potency,[3],"inconclusive [inhibitor, full curve]"
same,Potency,[4],"inconclusive [falling, partial curve]"
same,Potency,[2],inactive
CC(C)[C@@H]1[C@H]2CC[C@H](C2)[C@H]1N,"activity change, negative = inhibition",[1],inactive: 17.6% [at 38 µM]
same,Potency,[2],active: 1 µM
CN1CCN(c2ncnc3ccc(-c4cccnc4)cc23)CC1,activation,[3],inactive: -3.4%
same,Potency,[4],"inconclusive [falling, full curve]"
same,Potency,[2],inactive
Cc1ccccc1-c1ccc2ncnc(N(C)C)c2c1,Potency,[5],"inconclusive [activator, partial curve]"
same,Potency,[6],"inconclusive [inhibitor, partial curve]"
same,Potency,[4],"inconclusive [falling, partial curve]"
same,Potency,[2],"inconclusive [inhibitor, single point]"
COCCNc1nc(-c2ccccc2Cl)nc2ccccc12,Potency,[5],"inconclusive [activator, partial curve]"
same,Potency,[7],"inconclusive [inhibitor, full curve, poor fit]"
same,Potency,[4],"inconclusive [falling, partial curve]"
same,Potency,[2],inactive
CN(C)C(=O)c1ccc(-c2ccc3ncnc(NCc4cccs4)c3c2)cc1,"activity, negative = inhibition",[8],inactive: -7.67%
same,Potency,[5],"inconclusive [activator, single point]"
same,Potency,[9],active: 7.94 µM
same,Potency,[2],"inconclusive [inhibitor, partial curve, poor fit]"
COc1ccc(-n2c(=O)c(CCc3ccccc3)nc3cncnc32)cc1,Potency,[10],active: 25.1 µM
same,Potency,[5],"inconclusive [activator, single point]"
same,activation,[3],inconclusive: -23.6%
same,Potency,[4],inactive
same,Potency,[2],inactive

# — PubChem BioAssay (NCATS)
